# Reference: PubChem BioAssay (NCATS)
# Several values for one entry are separate records, joined by “and”; a condition that tells them apart may be missing. Equal entries are not always repeated. This list was built around the results that the source calls inconclusive (neither active nor inactive); the mix of calls is not that of the screen. For part of these data: Where the call is inconclusive, the potency comes from a doubtful curve fit. Activity calls are given as the source filed them. Unless noted, the call rests on the fitted dose curve; in most records, active means well fitted curve in the direction sought with a large enough effect; inconclusive means small, poorly fitted or top-dose-only effect, or another doubt; inactive means no such curve, though single readings can be large; an effect the other way counts as inactive or inconclusive.
# Tests used:
# Furin (Homo sapiens) = Furin (Homo sapiens) (UniProt P09958); assay: Furin counterscreen qHTS for Zika virus inhibitors (AID 1347149); conditions: furin enzymatic counterscreen, fluorogenic substrate; activity change, negative = inhibition: at 114 µM (top of the series); further: nearly all actives have a fitted effect of over 70% in size; further: potency means the concentration at half of the fitted maximal effect;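 on activity change, negative = inhibition: purified recombinant full-length human furin enzyme at 5 nM; fluorescence gain from furin cutting a BOC-RVRR-AMC peptide substrate over 15 min; top concentration of the series differs between compounds; plate controls were no-inhibitor control for no effect and no-enzyme control for full effect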
# Sequence of UniProt P09958 (P09958 whole entry, looked up): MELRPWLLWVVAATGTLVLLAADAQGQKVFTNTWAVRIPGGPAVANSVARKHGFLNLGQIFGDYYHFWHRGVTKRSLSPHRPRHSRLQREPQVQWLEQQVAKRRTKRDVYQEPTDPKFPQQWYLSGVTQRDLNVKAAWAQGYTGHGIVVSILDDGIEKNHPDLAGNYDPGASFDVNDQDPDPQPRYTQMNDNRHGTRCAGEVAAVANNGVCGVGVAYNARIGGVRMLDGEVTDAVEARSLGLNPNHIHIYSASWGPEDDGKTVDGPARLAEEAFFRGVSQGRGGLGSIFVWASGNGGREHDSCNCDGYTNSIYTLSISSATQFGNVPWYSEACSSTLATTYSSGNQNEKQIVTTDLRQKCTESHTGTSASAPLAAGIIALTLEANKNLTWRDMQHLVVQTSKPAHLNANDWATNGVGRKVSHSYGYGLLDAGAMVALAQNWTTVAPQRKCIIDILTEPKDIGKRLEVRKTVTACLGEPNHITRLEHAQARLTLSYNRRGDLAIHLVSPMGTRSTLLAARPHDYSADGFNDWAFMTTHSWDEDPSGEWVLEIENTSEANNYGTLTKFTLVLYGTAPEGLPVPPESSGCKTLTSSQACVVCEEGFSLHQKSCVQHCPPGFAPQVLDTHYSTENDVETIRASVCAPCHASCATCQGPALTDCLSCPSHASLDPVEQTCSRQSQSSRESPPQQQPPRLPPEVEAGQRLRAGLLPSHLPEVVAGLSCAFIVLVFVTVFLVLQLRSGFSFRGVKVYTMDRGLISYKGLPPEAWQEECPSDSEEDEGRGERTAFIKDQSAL
# Summary of the method: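 Fluorogenic cleavage of BOC-RVRR-AMC (2 microM final, Km ~15 µM) was monitored (ex 340, em 450 nm) at 37C after 15 min RT preincubation of 5 nM furin with compounds in HEPES pH 7.0 buffer with CaCl2 and Triton X-100. Percent inhibition was fitted to a 4-parameter Hill curve.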
# [1] = test system: Zika virus NS2B-NS3 protease (linked construct); assay: Confirmatory screen NINDS AMC qHTS for Zika virus inhibitors (AID 1347152); further: potency means the concentration at half of the fitted maximal effect; nearly all actives have a fitted effect of over 70% in size
# Summary of the method: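 Linked NS2B-NS3 1 nM, Tris pH 8.0/0.01% Tween 20; cpd 15 min RT dark; + Nle-KRR-AMC 10 µM (Km 18.3 µM); read 0 and 15 min, 340/450 nm; %inh vs controls, 4-param Hill.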
# [2] = test system: Zika virus NS2B-NS3 protease; assay: Primary screen GU AMC qHTS for Zika virus inhibitors (AID 1347154); further: potency means the concentration at half of the fitted maximal effect; nearly all actives have a fitted effect of over 70% in size
# Summary of the method: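 Unlinked Zika NS2B hydrophilic domain–NS3 protease complex at 25 nM in 10 mM Tris-HCl pH 8.0, 0.01% Tween 20, with an AMC peptide substrate. Fluorescence change (340/450 nm) over 15 min at room temperature, normalized to controls, fitted to 4-parameter Hill.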
# [3] = Tertiary RLuc qRT-PCR qHTS assay for Zika virus inhibitors (AID 1347169); further: nearly all actives have a fitted effect of over 55% in size; further: potency means the concentration at half of the fitted maximal effect; on activity change, negative = inhibition: top concentration of the series differs between compounds; on the % scale 0 is the no-effect control and ±100 the full control effect
# Summary of the method: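 Luminescence read-out: live-cell Renilla luciferase substrate applied to infected Vero cells, signal measured after 1-1.5 hrs. Cells had received compound before ZIKV-RLuc (Cambodian strain, MOI 1-2) infection and were incubated 48-72 hrs at 37 degrees C.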
# [4] = Primary qHTS for small molecule stabilizers of the endoplasmic reticulum resident proteome: Secreted ER Calcium Modulated Protein (SERCaMP) assay (AID 1508630); conditions: SH-SY5Y GLuc-SERCaMP (Gaussia luciferase released on ER calcium loss) secretion, thapsigargin, luminescence; activity change, negative = inhibition: at 38.4 µM (top of the series) unless noted; further: potency means the concentration at half of the fitted maximal effect; on activity change, negative = inhibition: on the % scale 0 is the no-effect control and ±100 the full control effect
# Summary of the method: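 GLuc-SERCaMP-expressing SH-SY5Y cells, pretreated 16 h with compound, are challenged with thapsigargin to empty ER calcium stores; after 4 h, coelenterazine is added directly to the medium and luminescence is imaged.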
# [5] = test system: Zika virus NS2B-NS3 protease (linked); assay: 384 well plate NINDS AMC confirmatory qHTS for Zika virus inhibitors (AID 1347163); further: nearly all actives have a fitted effect of over 50% in size; further: potency means the concentration at half of the fitted maximal effect;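 on activity change, negative = inhibition: linked protease at 5 30 or 60 nM final depending on run; fluorescence of AMC released from Ac-VKTGKR-AMC peptide cleaved by the protease; top concentration of the series differs between compounds; 0% = no-inhibitor control and -100% = no-enzyme control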
# Summary of the method: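 Linked protease 5/30/60 nM final; cpds up to 1 mM final, ~15 min preinc. Substrate Ac-VKTGKR-AMC 30 microM final. RT, dark, 25 min; FI ex 355/em 460; normalized to no-enzyme/no-inhibitor ctrls.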
# [6] = target: 3',5'-cyclic-AMP phosphodiesterase 4B (Homo sapiens) (UniProt Q07343); assay: qHTS Assay for Inhibitors of PDE-IV (AID 607; active means well fitted activation curve with a large enough effect in the main read-out, with a control signal flat, not every such curve was filed as active; inconclusive means small, poorly fitted or top-dose-only effect, or effect the other way, or a change in a side signal; further: potency means the concentration at half of the fitted maximal effect; on activation (PDE inhibition): % of control where 0% means no effect); conditions: HEK293 ACTOne CNG channel cells, membrane potential fluorescence; activation (PDE inhibition): at 22.9 µM (top of the series)
# Sequence of UniProt Q07343 (Q07343 whole entry, looked up): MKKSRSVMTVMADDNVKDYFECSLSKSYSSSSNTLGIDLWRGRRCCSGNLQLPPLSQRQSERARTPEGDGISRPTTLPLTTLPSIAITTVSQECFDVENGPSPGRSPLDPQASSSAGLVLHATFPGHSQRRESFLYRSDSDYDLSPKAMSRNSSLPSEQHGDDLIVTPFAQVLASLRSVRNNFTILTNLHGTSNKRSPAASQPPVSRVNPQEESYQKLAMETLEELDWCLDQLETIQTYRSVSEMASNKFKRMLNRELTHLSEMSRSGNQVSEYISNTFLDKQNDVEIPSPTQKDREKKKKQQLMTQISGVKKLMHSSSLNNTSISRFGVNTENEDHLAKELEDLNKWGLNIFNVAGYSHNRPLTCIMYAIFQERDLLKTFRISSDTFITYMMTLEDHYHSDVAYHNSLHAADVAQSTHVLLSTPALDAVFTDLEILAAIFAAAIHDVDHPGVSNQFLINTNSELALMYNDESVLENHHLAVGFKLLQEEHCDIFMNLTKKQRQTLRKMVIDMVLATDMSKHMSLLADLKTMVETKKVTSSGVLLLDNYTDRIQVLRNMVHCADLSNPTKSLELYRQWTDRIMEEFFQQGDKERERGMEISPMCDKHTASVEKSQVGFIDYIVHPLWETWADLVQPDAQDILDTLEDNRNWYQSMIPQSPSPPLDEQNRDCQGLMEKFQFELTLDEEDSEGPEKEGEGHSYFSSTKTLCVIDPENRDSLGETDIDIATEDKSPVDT
# Summary of the method: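 HEK293 ACTOne cells with CNG channel (1000/well), endogenous PDE4; membrane potential dye, compounds up to 22.9 uM final. Fluorescence Ex 535/Em 590; RO 20-1724 (100 uM final) as reference.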
# [7] = target: Ubiquitin carboxyl-terminal hydrolase 1 (Homo sapiens) (UniProt O94782); assay: Inhibitors of USP1/UAF1: Pilot qHTS (AID 504865); further: potency means the concentration at half of the fitted maximal effect;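 further: rhodamine fluorescence freed from ubiquitin-rhodamine substrate followed over time; nearly all actives have a fitted effect of over 35% in size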; on activity change, negative = inhibition: top concentration of the series differs between compounds; on the % scale 0 is the no-effect control and ±100 the full control effect
# Sequence of UniProt O94782 (O94782 whole entry, looked up): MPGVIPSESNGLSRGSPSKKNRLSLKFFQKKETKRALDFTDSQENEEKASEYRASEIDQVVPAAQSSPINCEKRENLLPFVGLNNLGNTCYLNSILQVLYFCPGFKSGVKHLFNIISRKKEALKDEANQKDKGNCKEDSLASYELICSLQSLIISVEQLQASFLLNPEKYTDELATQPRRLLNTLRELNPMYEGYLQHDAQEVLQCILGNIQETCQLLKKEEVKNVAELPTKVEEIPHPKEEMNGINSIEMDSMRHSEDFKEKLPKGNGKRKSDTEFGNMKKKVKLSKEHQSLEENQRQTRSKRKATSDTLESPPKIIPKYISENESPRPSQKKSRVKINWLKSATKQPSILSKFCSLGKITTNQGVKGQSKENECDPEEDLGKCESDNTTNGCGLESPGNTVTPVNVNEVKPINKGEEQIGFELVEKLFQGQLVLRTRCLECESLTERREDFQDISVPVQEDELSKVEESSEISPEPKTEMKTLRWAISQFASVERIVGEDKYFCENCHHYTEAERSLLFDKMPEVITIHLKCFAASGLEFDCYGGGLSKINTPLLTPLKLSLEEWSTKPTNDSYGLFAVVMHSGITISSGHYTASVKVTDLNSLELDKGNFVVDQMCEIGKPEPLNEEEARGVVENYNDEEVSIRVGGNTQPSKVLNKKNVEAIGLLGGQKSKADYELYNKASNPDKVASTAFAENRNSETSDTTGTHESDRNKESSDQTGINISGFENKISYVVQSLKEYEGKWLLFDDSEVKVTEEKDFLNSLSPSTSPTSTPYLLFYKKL
# Summary of the method: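 1nM USP1/UAF1 + cpd, 15 min RT; start w/ Ub-Rho 150nM final; kinetic FL 480/540 nm, 6 reads q60 s. Buffer 50mM HEPES pH 7.8, 0.5mM EDTA, 1mM TCEP, 0.01% Tween-20, 0.1 mg/ml BSA.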
# [8] = qHTS Assay for Identification of Small Molecule Antagonists for NFkB Signaling Pathway (AID 895; active means well fitted inhibition curve with a large enough effect in the signal ratio, with a control signal flat, not every such curve was filed as active; inconclusive means small, poorly fitted or top-dose-only effect, or effect the other way, or a change in a side signal; the % refers to the signal ratio; further: potency means the concentration at half of the fitted maximal effect); conditions: NFkB beta-lactamase reporter cells, FRET ratio 460/530, stimulated with 10 pM TNF alpha; activity change, negative = inhibition: at 38.3 µM (top of the series)
# Summary of the method: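 ME-180 NFkB-bla cells (beta-lactamase under NFkB response element), plated overnight, treated with compound then 10 pM TNF alpha (about EC50) for 5 hrs at 37 C. LiveBLAzer FRET read at 460/530 nm emission, 405 nm excitation.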
# [9] = target: RecQ-like DNA helicase BLM (Homo sapiens) (UniProt P54132); assay: qHTS Validation Assay for Inhibitors of Bloom's syndrome helicase (BLM) (AID 2364);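 further: plate controls were DMSO vehicle for no effect and enzyme-free control for full effect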
# Sequence of UniProt P54132 (P54132 whole entry, looked up): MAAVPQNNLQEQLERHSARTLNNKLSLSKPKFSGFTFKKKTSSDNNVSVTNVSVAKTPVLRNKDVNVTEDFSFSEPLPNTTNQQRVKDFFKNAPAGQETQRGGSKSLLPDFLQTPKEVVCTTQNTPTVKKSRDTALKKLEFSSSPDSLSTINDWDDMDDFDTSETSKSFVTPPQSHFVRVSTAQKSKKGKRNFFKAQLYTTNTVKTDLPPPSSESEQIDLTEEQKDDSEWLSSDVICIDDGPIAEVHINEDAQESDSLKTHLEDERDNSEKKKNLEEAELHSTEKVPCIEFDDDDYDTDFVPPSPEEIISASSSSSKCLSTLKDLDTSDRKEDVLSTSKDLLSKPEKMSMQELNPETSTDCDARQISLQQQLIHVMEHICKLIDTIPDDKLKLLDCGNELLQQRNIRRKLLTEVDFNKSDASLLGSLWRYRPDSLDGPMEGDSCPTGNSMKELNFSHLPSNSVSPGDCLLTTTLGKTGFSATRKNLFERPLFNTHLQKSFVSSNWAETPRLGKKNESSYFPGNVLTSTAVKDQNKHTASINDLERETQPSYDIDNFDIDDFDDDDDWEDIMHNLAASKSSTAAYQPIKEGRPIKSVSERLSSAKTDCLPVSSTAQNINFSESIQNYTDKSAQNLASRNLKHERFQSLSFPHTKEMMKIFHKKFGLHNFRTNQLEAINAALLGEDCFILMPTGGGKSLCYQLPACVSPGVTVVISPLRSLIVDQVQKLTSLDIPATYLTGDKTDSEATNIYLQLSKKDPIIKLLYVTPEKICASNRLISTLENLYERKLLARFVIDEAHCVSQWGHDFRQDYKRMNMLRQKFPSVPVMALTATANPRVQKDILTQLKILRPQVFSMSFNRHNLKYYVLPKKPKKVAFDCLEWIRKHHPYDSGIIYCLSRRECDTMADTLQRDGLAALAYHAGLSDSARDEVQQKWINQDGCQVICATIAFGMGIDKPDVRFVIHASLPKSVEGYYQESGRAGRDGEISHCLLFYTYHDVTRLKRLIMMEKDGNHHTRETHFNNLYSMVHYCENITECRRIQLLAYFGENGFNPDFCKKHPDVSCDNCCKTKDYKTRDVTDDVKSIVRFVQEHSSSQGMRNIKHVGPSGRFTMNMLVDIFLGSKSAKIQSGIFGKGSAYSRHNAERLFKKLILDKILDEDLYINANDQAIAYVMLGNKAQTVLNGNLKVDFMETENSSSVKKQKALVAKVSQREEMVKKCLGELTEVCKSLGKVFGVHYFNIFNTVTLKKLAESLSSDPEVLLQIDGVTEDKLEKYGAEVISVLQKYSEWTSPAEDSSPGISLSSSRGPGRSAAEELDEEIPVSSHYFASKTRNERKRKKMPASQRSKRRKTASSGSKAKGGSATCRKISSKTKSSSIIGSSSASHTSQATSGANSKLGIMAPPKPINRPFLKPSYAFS
# Summary of the method: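 50 nM BLM preincubated 15 min at room temperature with compound in pH 8.0 Tris buffer containing 2.5 ug/ml poly(dI-dC); started with 200 nM TAMRA/BHQ-2 forked duplex and 2 mM ATP (final). Unwinding read as TAMRA fluorescence increase, two reads 2 h apart.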
# [10] = target: ATP-dependent 6-phosphofructokinase (Trypanosoma brucei brucei) (UniProt O15648); assay: qHTS Validation Assay to Find Inhibitors of T. brucei phosphofructokinase (AID 485368); further: potency means the concentration at half of the fitted maximal effect
# Sequence of UniProt O15648 (O15648 whole entry, looked up): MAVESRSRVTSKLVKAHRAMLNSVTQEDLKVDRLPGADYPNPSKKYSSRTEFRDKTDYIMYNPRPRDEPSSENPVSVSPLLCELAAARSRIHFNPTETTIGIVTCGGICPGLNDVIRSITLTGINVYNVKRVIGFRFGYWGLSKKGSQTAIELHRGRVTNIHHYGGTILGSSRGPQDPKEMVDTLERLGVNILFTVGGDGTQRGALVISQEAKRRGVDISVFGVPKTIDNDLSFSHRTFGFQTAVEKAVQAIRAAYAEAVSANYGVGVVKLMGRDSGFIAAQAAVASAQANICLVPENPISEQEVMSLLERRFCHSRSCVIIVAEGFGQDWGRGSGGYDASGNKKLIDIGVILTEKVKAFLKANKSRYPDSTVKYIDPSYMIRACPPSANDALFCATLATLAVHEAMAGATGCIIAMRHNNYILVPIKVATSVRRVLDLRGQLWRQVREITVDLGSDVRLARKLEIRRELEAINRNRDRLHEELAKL
# Summary of the method: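 Activity was read as ADP production by luminescence (ADP-Glo) after 45 min at room temperature. The enzyme was 1.25nM PFK in 0.1M TEA pH 8.0 with 0.5 mM F6P, 0.1mM ATP and 5 mM MgCl2. Compounds were titrated up to 57 uM and % activity normalized to no-enzyme and full-enzyme controls.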
# [11] = qHTS Assay for Lipid Storage Modulators (AID 1519; calls by dose curve; further: on the % scale 0 is the no-effect control and ±100 the full control effect); conditions: Drosophila S3 cells, BODIPY lipid droplet/cell ratio, laser cytometry, cells loaded with oleic acid; activity change, negative = inhibition: at 57.5 µM (top of the series) unless noted
# Summary of the method: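 Cells seeded at 5,000 per well were treated with compounds over a concentration series and loaded with oleic acid (400 uM, as added). Lipid droplet fluorescence (488 nm excitation, 500-530 nm channel) was read by laser-scanning cytometry and normalized to 20 uM Triacsin C.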
# [12] = ZIKV-mCherry secondary qHTS for Zika virus inhibitors (AID 1347158); conditions: Vero cells, ZIKV-mCherry infection imaging, 48-72 h; activity change, negative = inhibition: at 49.2 µM (top of the series); further: potency means the concentration at half of the fitted maximal effect; on activity change, negative = inhibition: top concentration of the series differs between compounds
# Summary of the method: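 Vero cells, 5,000/well, plated overnight at 37 °C, then compound added and infected with recombinant ZIKV-mCherry at MOI 1 for 48-72 h. PFA-fixed, Hoechst nuclear stain, high-content imaging; cells with mCherry intensity above 450 RFU scored infected, reported as percent infection.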
# [13] = Confirmatory screen GU Rhodamine qHTS for Zika virus inhibitors qHTS (AID 1347157); further: nearly all actives have a fitted effect of over 70% in size; further: potency means the concentration at half of the fitted maximal effect;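 on activity change, negative = inhibition: plate controls were no-inhibitor wells for no effect and no-enzyme wells for full effect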
# Summary of the method: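 Noncovalent NS2B hydrophilic domain/NS3 protease complex (25 nM final) in 10 mM Tris-HCl pH 8.0, 0.01% Tween 20, preincubated 15 min with compounds (up to 114 microM), then 1.5 microM Rhodamine110 substrate. Fluorescence change over 15 min fitted to 4-parameter Hill.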
# [14] = Confirmatory screen NINDS Rhodamine qHTS for Zika virus inhibitors (AID 1347161); further: potency means the concentration at half of the fitted maximal effect; nearly all actives have a fitted effect of over 60% in size
# Summary of the method: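 Purified linked NS2B-NS3 protease (NS2B hydrophilic domain joined to NS3 protease by flexible linker), 25 nM in 10 mM Tris-HCl pH 8.0, 0.01% Tween 20. Compounds titrated, 15 min preincubation at room temperature; 1.5 microM Rhodamine110 substrate, FITC fluorescence change over 15 min.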
# [15] = test system: Zika virus NS2B-NS3 protease (linked construct); assay: 384 well plate NINDS Rhodamine confirmatory qHTS for Zika virus inhibitors (AID 1347164);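 further: fluorescence from protease cleavage of Ac-LKRR-rhodamine 110 substrate; potency means the concentration at half of the fitted maximal effect; nearly all actives have a fitted effect of over 65% in size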
# Summary of the method: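 Fluorescence read at ex 485 nm/em 538 nm, 25 min after adding 10 microM Ac-LKRR-Rd substrate at room temperature in the dark; signal normalized to no-enzyme and no-inhibitor controls. Enzyme final 5, 30 or 60 nM; compounds, ~15 min preincubation.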
# Tags describe the fitted curve by direction and shape or compound fluorescence and quenching.
smiles,measurement,setting,value
CN(C)[C@@H]1C(=O)C(C(=O)NCN2CCCC2)=C(O)[C@@]2(O)C(=O)C3=C(O)c4c(O)cccc4[C@@](C)(O)[C@H]3C[C@@H]12,Potency,Furin (Homo sapiens),"inconclusive: 24.1 µM [inhibitor, partial curve]"
same,Potency,[1],"inconclusive: 17.1 µM [inhibitor, partial curve]"
same,Potency,[2],"inconclusive: 33.6 µM [inhibitor, partial curve, poor fit]"
same,Potency,[3],"inconclusive: 1.47 µM [inhibitor, full curve, poor fit]"
same,Potency,[4],inactive
O=C(Nc1ccc(Oc2ccccc2)cc1)O[C@@H]1CO[C@H]2[C@@H]1OC[C@@H]2n1nnnc1-c1ccc(-c2ccccc2)cc1,Potency,Furin (Homo sapiens),"inconclusive: 44.1 µM [inhibitor, partial curve]"
O=C(O)c1cc(NCc2cc(O)ccc2O)ccc1O,Potency,Furin (Homo sapiens),"inconclusive: 21.5 µM [inhibitor, partial curve, poor fit]"
same,Potency,[1],"inconclusive: 30.4 µM [inhibitor, single point]"
same,Potency,[2],"inconclusive: 37.7 µM [inhibitor, single point]"
same,Potency,[5],inactive
same,Potency,[4],"inconclusive: 25.1 µM [inhibitor, partial curve, poor fit]"
COc1ccccc1N1CCN(CCn2c(=O)c3c(c4ccccc4n3C)n(C)c2=O)CC1,Potency,Furin (Homo sapiens),active: 24.1 µM
same,Potency,[1],active: 27.1 µM
same,Potency,[2],"inconclusive: 21.2 µM [inhibitor, single point] and inconclusive: 37.7 µM [inhibitor, single point]"
same,Potency,[3],inactive
same,Potency,[4],inactive
Cc1c(-c2ccc(O)cc2)nn(-c2ccc(O)cc2)c1-c1ccc(OCCN2CCCCC2)cc1,activation (PDE inhibition),[6],inconclusive: -44.5%
same,Potency,[7],"inconclusive: 44.7 µM [inhibitor, partial curve, poor fit]"
same,Potency,Furin (Homo sapiens),"inconclusive: 30.4 µM [inhibitor, partial curve]"
same,Potency,[1],"inconclusive: 24.1 µM [inhibitor, partial curve]"
same,Potency,[2],"inconclusive: 21.2 µM [inhibitor, single point]"
same,Potency,[3],"inconclusive: 37 µM [inhibitor, single point]"
same,Potency,[4],"inconclusive: 31.6 µM [inhibitor, partial curve, poor fit]"
NCCNS(=O)(=O)c1cccc2c(Cl)cccc12,Potency,[6],inactive
same,Potency,[8],"inconclusive: 8.91 µM [inhibitor, partial curve]"
same,Potency,[9],inactive
same,Potency,[10],"inconclusive: 0.0478 µM [falling, full curve, poor fit]"
same,Potency,[7],inactive
Cc1cc(C)cc(C(=O)N(C)[C@H](Cc2ccc(-c3ccccc3)cc2)C(=O)N[C@@H](Cc2c[nH]c3ccccc23)C(=O)O)c1,Potency,[6],"inconclusive: 15.1 µM [inhibitor, single point]"
same,"activity change, negative = inhibition",[11],inconclusive: 12.2%
same,Potency,[7],active: 79.4 µM
same,Potency,Furin (Homo sapiens),"inconclusive: 27 µM [inhibitor, single point]"
same,Potency,[2],"inconclusive: 16.8 µM [inhibitor, partial curve]"
same,Potency,[12],"inconclusive: 5.62 µM [inhibitor, full curve]"
same,Potency,[3],"inconclusive: 20.8 µM [inhibitor, partial curve]"
O=C(Nc1ccc(C(=O)OCc2cc(=O)n3nc(C4CC4)sc3n2)cc1)c1ccc(F)cc1,Potency,Furin (Homo sapiens),"inconclusive: 26.4 µM [inhibitor, partial curve]"
same,Potency,[13],inactive
CCN(CC)c1ccc(/C=N/NC(=O)c2ccc(O)cc2)cc1,Potency,Furin (Homo sapiens),active: 24.1 µM
same,Potency,[2],"inconclusive: 26.7 µM [inhibitor, partial curve]"
same,Potency,[14],"inconclusive: 55.3 µM [inhibitor, partial curve]"
Cc1ccc(-c2nnc(Nc3ccc(S(N)(=O)=O)cc3)c3ccccc23)cc1S(=O)(=O)N1CCOCC1,Potency,Furin (Homo sapiens),"inconclusive: 16.7 µM [inhibitor, full curve]"
same,Potency,[13],"inconclusive: 35.5 µM [inhibitor, partial curve]"
same,Potency,[12],inactive
same,Potency,[5],"inconclusive: 126 µM [inhibitor, partial curve, poor fit]"
same,Potency,[15],"inconclusive: 39.8 µM [inhibitor, partial curve, poor fit]"
same,"activity change, negative = inhibition",[3],inactive: -1.31% [at 1.74 µM]
O=S(=O)(N[C@H]1CO[C@H]2[C@@H]1OC[C@@H]2Nc1nccc(-c2ccc3c(c2)OCO3)n1)c1ccc2ccccc2c1,Potency,Furin (Homo sapiens),active: 55.5 µM
same,Potency,[1],"inconclusive: 69.8 µM [inhibitor, single point]"
same,Potency,[3],"inconclusive: 13.1 µM [inhibitor, partial curve, poor fit]"
Cc1cccc(C(=O)Nc2ccc(C(=O)OCc3cc(=O)n4c5c(sc4n3)CCCC5)cc2)c1,Potency,Furin (Homo sapiens),active: 46.9 µM
same,Potency,[13],"inconclusive: 39.8 µM [inhibitor, partial curve, poor fit]"
Cc1ccc(OCC(=O)Nc2ccc(C(=O)OCc3cc(=O)n4nc(C5CC5)sc4n3)cc2)cc1,Potency,Furin (Homo sapiens),inactive
same,Potency,[13],"inconclusive: 56.2 µM [inhibitor, partial curve, poor fit]"
same,Potency,[14],"inconclusive: 39.8 µM [inhibitor, partial curve]"
